Results: ChEMBL document CHEMBL4888484, “Replenishing the malaria drug discovery pipeline: Screening and hit evaluation of the MMV Hit Generation Library 1 (HGL1) against asexual blood stage Plasmodium falciparum ,using a nano luciferase reporter read-out” (2022)
Hit rate of the full screen: of about 150,000 compounds, about 540 (0.36%) showed an effect of 50% or more. The list shows a part of the results.

The molecules below were run on Plasmodium falciparum (assay: Primary screen in NF54 nanoGlo assay, in single point, at 2uM, 72h; a lower Z score goes with more inhibition). Conditions: timepoint 72 hour.
Assay type: functional, Erythrocyte

Compound | % Inhibition [%] | Z score
OC(COC1CCOCC1)CN1CCCC1c1ccc(Br)cn1 (configuration not stated) | 4 | -0.4
CCOC1CC2(CCN(Cc3ccc(OC(F)F)c(Cl)c3)C2)C1 (configuration not stated) | 1 | -0.13
Cc1nc(N2CCOCC2)sc1CN[C@@H](C)Cn1cccn1 | -8 | 0.81
Cc1ccc(-c2cc(F)c(F)c(F)c2)nn1 | -6 | 0.87
Cc1cc(C(=O)NCCc2ccco2)nc(C)n1 | -8 | 1.45
Cc1ccc(NC(=O)c2[nH]ccc2C)cc1S(=O)(=O)NC(C)(C)C | -3 | 0.34
CCn1nc(CO)c2c1CCN(Cc1ccc(OC)cc1F)C2 | -1 | 0.13
CN(C)c1ccncc1C(=O)N1CCN(Cc2ccncc2)CC1 | -1 | 0.07
COc1cc(OC)c(NC(=O)N(C)CCc2c(C)nn(C)c2C)cc1Cl | -9 | 0.89
CCCC1(CN=C(N)N(C)C2CC2)CCC1 | 5 | -0.45
O=C(CCc1ccccc1)N1CCC2(CC[C@@H]2N2CCOCC2)CC1 | -3 | 0.51
C[C@H]1COc2c(N3CCN(C)CC3)c(F)cc3c(=O)c(C(=O)NCc4cccc(Cl)c4)cn1c23 | -12 | 1.02
CCCC[C@H](NC(=O)c1cc(C)c(CC)n(C)c1=O)C(N)=O | -9 | 1.44
CCCNC(=O)CCNC(=O)N[C@H]1CCCC12CCOCC2 | -13 | 2.37
Cc1cccc(-c2nc3nc(C)cc(N4CCCCC4)n3n2)c1 | -23 | 4.02
NC(=O)CN1CCC(Nc2nc(-c3ccc(F)cc3)cs2)CC1 | 7 | -0.79
Cc1cccc(-c2ccc(C(=O)N3CCOC4CCCCC43)c(=O)[nH]2)c1 (configuration not stated) | -1 | 0.1
CC(C)(C)OC(=O)N1CCC2CCCCC2C1C(=O)O (configuration not stated) | -8 | 0.79
Cc1ccc(OCCS(=O)(=O)N2CCNC[C@@H]2C)cc1 | -17 | 2.86
Cn1nc(O)c2c1CN(CC(=O)N1CCCc3ccccc31)CC2 | -6 | 0.64
CCn1cc(CNC(=O)N2C[C@H]3CCC[C@@H](C2)N(C)C3=O)cn1 | -6 | 0.85
Cc1cccc(CN2CCN(Cc3ccc(CO)o3)C[C@@H]2CCO)n1 | -2 | 0.31

Compound | % Inhibition [%] | Z score
O=S(=O)(c1cccc2nsnc12)N1CCc2[nH]c3c(Br)cccc3c2C1 | -3 | 0.33
O=C(Cn1nnc(-c2ccc3c(c2)OCO3)n1)Nc1ccc(F)cc1F | -15 | 2.03
CCCc1cnc(C)nc1N1CCC(N2CCCC2)CC1 | -8 | 1.59
CCNC(=O)CN(CC)Cc1nnc(C(C)(C)C)o1 | 0 | 0.01
COc1ccc(CNCCC(=O)NCc2ccco2)c(F)c1F | -6 | 0.79
COC(=O)[C@H](NC(=O)N1CCOCC1)c1ccccc1 | -19 | 2.41
O=S(=O)(c1ccc(Cl)cc1)N1CCOC[C@H](Oc2cccnc2)C1 | 12 | -1.35
O=C(CCC1CCN(c2cc(NC3CC3)ncn2)CC1)NCc1ccc(N2CCOCC2)cc1 | 32 | -3.59
CCN(CC)S(=O)(=O)c1ccc(F)c(C(=O)OCc2cc(Cl)c3c(c2)OCCO3)c1 | -5 | 0.6
O=C1C2CC=CCC2C(=O)N1c1ccc(N2C(=O)C3CC=CCC3C2=O)c(Cl)c1 (configuration not stated) | -5 | 0.63
COC(=O)c1cc(NC(=O)COc2ccc(F)cc2)cn1Cc1ccccc1 | -8 | 1.29
O=C1C(NC(CO)c2ccccc2)CCN1c1c(F)cccc1F (configuration not stated) | -7 | 0.75
Cc1cc(C(=O)NCCOc2c(C)cccc2C)c2nc3n(c2n1)CCCCC3 | -26 | 3.02
Cc1ncsc1CN(C)c1nc2ccccc2[nH]1 | -2 | 0.26
NC(=O)c1cc(OC2CCN(c3ncccc3C(F)(F)F)CC2)ccn1 | -2 | 0.19
O=C(NC1CCCCCC1)c1nnc(-c2cccc(Cl)c2)o1 | -1 | 0.11
Cc1cc(NC(=O)N2CCNC(=O)[C@@H]2C)n(CCC(C)C)n1 | -9 | 1.41
Cc1cnc2c(C(=O)N3CCC[C@H](Cc4ccc(C(=O)O)cc4)C3)cnn2c1 | -7 | 1.18
Cc1cc(C(=O)N2CCC(C)(c3noc(-c4cccnc4)n3)CC2)c(C)n1Cc1ccc(F)cc1 | -11 | 1.46
COc1ccc(C(=O)N[C@H]2CO[C@@H](CN3CCC(F)(F)C3)[C@@H]2O)cc1 | -5 | 0.85
Cc1nn(C)cc1CN(C)c1cc(C(=O)N2CCOCC2)ccn1 | 6 | -1.05
COCCCC(=O)N(c1cccc(N2CCCC2)c1)C1CCCCCC1 | 1 | -0.09

Compound | % Inhibition [%] | Z score
Cc1noc(-c2ccc(C(C)(C)C)cc2)c1C(=O)NCc1cc(F)cc(F)c1 | -7 | 1.18
CC(C)CNC(=O)Cc1ccc(F)cc1 | -10 | 1.68
CC(C)(C)c1coc(CC2CCN(C(=O)Cc3ccoc3)CC2)n1 | -1 | 0.13
CCc1cc(NC(=O)N2C[C@@H](C)[C@](C)(C(=O)OC)C2)n(C)n1 | -14 | 1.62
COc1ccc(CCNC(=O)N(C)C)cc1OC | 3 | -0.34
O=C(OCC(=O)N1CCCCCCC1)C1CCCCC1C(=O)N1CCc2ccccc21 (configuration not stated) | -5 | 0.57
Cn1ncn(CC(=O)c2ccc3c(c2)CCO3)c1=O | -7 | 0.82
Cc1nnc(N(C)C(=O)c2sc(C)nc2C)s1 | -2 | 0.44
CN(CC(=O)NCc1cccs1)C(=O)c1ncoc1-c1cccs1 | -7 | 0.91
COc1cc(CN(C)[C@H]2CCc3nn(C)c(=O)n3CC2)cc(OC)c1 | -3 | 0.56
CC1(C)CN(CCc2c[nH]nn2)CCc2ccccc21 | -3 | 0.35
Nc1ccnc(C(F)(F)F)c1C(=O)c1ccccc1 | -14 | 2.78
Cc1c(N)nnn1CCOc1ccc(F)cc1 | 2 | -0.3
CN(C(=O)c1ccc(Cl)c(Cl)c1)c1nc2ccccc2o1 | -3 | 0.22
c1ccc2nc(NCCCC3(C4OCCO4)CCOCC3)cnc2c1 | -16 | 2.06
Cc1cccc([C@@H]2CCCN2C(=O)c2c(C)nn(C)c2C)n1 | 4 | -0.54
Cc1nn(C)c(C)c1C(=O)N1CCC[C@H](Oc2ncc(Cl)cn2)C1 | 0 | 0.05
O[C@@]1(C(F)(F)F)CCN(Cc2cc(-c3ccccc3)on2)C1 | -8 | 1.07
O=C(CCc1nc(-c2nnc[nH]2)no1)N1CC[C@H](Oc2cccc(Cl)c2)C1 | 4 | -0.54
O=C(Cn1ccccc1=O)N1CCC2(CC1)CNc1ccccc12 | 4 | -0.58
CC[C@H](C)n1c(=O)[nH]c2c1c(=O)n(C)c(=O)n2C | -1 | 0.17
COCCc1noc(CNC(=O)c2ccncc2C)n1 | 0 | -0.02

Compound | % Inhibition [%] | Z score
Cc1cc(CN(CC2CCC2)c2ccccc2)nn1C | -6 | 0.99
Cc1cc(NC(=O)N2CC(S(=O)(=O)Nc3ccccc3)C2)no1 | -5 | 0.68
COc1ccc(NC(=O)Cn2nc3c(N4CCOCC4)nccn3c2=O)c(OC)c1 | -8 | 0.8
Cc1cc([C@]2(C)NC(=O)N(Cc3nc(C)c(C)s3)C2=O)c(C)o1 | 2 | -0.22
O=C1CCC2(CCN(C(=O)[C@H]3CC[C@@H](O)CC3)CC2)CN1CCc1ccncc1 | -26 | 2.38
O=C(NC1CC1(F)c1ccccc1)N1CCC(c2ccc3cccnc3n2)CC1 (configuration not stated) | 4 | -0.66
O=C1C[C@@H](c2c[nH]nc2-c2ccccc2)c2ccc(N3CCNC3=O)cc2N1 | -7 | 1.26
COc1cc(OC)c(NC(=O)N(CCN(C)C)C2CCOCC2)cc1Cl | -5 | 0.81
O=C(CNC(=O)COc1ccccc1)NCCc1c[nH]c2ccccc12 | 10 | -1.33
O=C(NCc1c(F)cccc1Cl)c1cnc(-c2cccnc2)nc1 | -19 | 1.75
CCCn1cc(S(=O)(=O)NCc2nc(CC(C)C)no2)cn1 | -3 | 0.6
O=C(Cn1cnc2c(c1=O)CCCC2)Nc1ccc(Oc2ccccc2)cc1 | -1 | 0.08
CN(CCc1ccccn1)C(=O)c1cnc2c(c1)CCCC2 | -2 | 0.15
CC(C)(Oc1cccc(Cl)c1)C(=O)Nc1nc2ncccn2n1 | 2 | -0.31
CNc1nc(N2CCOCC2)nc2ccccc12 | 2 | -0.34
Cc1cc(C(=O)N2C[C@H](NS(=O)(=O)N(C)C)[C@@H](C(C)C)C2)[nH]n1 | -7 | 1.2
Cc1nc2ccccc2n1CC1CCN(S(=O)(=O)c2ccc(Cl)s2)CC1 | 10 | -1.09
N#Cc1c2n(c3c(=O)[nH]cnc13)CCC2 | -6 | 0.67
CCC(C)Nc1ncnc2sc(C3COc4ccccc4O3)cc12 (configuration not stated) | -6 | 1.02
O=C(N[C@H]1CCCc2c(O)cccc21)c1cccc(-n2ccnc2)c1 | 0 | 0.01
